Laboratory results as given in the supplement of paper PMC7826260.
The list shows a part of the results. The data describe in vitro nicking of single-stranded DNA by Rep domains for 1 h at 37 °C with 3 µM enzyme; only the middle of the 90-letter strands is printed. Values are log2 of uncut reads against the no-enzyme pool; the lower, the more was cut; hits are not called. Shares of all reads are compared; where an enzyme cuts many sequences, the uncut ones exceed 0.

test system: T1, Rep nickase domain of tomato golden mosaic virus; assay: uncleaved DNA left, log2 of reads against the no-enzyme library (log2 ratio); higher = less cleavage (more negative = more Rep cleavage of the k-mer); sequences stand for … in CTCGTCCG…ACCGGAGA
T1 sequence (residues 1-124, tag not shown): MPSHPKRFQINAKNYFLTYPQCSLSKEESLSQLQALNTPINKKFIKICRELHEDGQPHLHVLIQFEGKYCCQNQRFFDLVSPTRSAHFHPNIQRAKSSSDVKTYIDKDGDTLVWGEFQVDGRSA
Description: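 A pool of 90-nt single-stranded DNAs with seven random bases just before the constant AC of the nick site (name = the seven bases) was cut by 3 µM recombinant His6-SUMO-tagged Rep nickase domain (300 nM DNA, 50 mM HEPES pH 8.0, 50 mM NaCl, 1 mM MnCl2, 1 h, 37 °C, three replicates). Uncut DNA was amplified and sequenced.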

| Sequence | uncleaved DNA left (log2) |
| --- | --- |
| AAACGCT | -0.0556 |
| CCACGCA | -0.128 |
| ACCCAGG | 0.123 |
| TCGGTGA | 0.00172 |
| ACAGACA | 0.0507 |
| TTAACCG | -0.0261 |
| TAACTCA | -0.122 |
| GGGGCAA | 0.15 |
| AAGTCTT | -0.208 |
| GGTGGTA | 0.0164 |
| CCCGAAT | 0.167 |
| GCTAACA | -0.0504 |
| ACGAGTT | 0.185 |
| GGGACCT | -0.0547 |
| AACATTC | -0.0119 |
| ATGCTGC | -0.0593 |
| CAAAAAT | -0.156 |
| TGAATTA | 0.0271 |
| TCGGGGT | -0.0149 |
| TGGCTGG | 0.0374 |

| Sequence | uncleaved DNA left (log2) |
| --- | --- |
| TGATCTT | -0.186 |
| TGACTTG | -0.165 |
| GCTATAG | 0.135 |
| CCTTTAT | -0.0999 |
| CGACCTT | -0.0257 |
| CATACGT | -0.0572 |
| ACTAGAC | 0.223 |
| GCTAATC | 0.0653 |
| TTGTGCG | -0.142 |
| CGCCGCT | -0.0653 |
| TAATAGG | 0.0842 |
| TTCACTA | -0.0254 |
| GCATATG | 0.0784 |
| TGGGTAT | 0.0968 |
| CCCCTCG | -0.0655 |
| GCTTAGG | 0.127 |
| CAGGATA | 0.188 |
| TTTACAT | 0.0617 |
| CCGACGT | 0.0174 |
| GAAGAAG | 0.101 |
